Measured values as given in publication PMC4335499.
No constants are given. Whether binding was seen depends on the method and setting. Some entries that bind do so weakly or less than the wild type. Blank lines part the entries; values can stand above or below the molecule they belong to.

Chains of the proteins cited; added tags and fusions are not shown. Residues count along the entry.
UniProt P11940, residues 95-176: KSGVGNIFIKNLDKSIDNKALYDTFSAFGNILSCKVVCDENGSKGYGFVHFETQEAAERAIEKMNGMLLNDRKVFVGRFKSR
UniProt Q04637, residues 1-260: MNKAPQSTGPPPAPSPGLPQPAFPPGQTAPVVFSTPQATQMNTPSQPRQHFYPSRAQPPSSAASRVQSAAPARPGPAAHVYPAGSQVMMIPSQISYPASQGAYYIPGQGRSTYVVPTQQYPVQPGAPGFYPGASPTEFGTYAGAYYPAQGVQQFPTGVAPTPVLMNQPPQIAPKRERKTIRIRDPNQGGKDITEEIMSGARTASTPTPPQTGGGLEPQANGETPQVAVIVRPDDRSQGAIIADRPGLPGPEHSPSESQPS

Columns and labels:
Assay in all cases: two-hybrid; Pab1/PABP1 constructs fused to the Gal4 DNA-binding domain (pOBD2), eIF4G fragments fused to the Gal4 activation domain (pOAD); yeast strain PJ694a; HIS3 reporter; cells spotted in a dilution series on synthetic complete plates lacking leucine and tryptophan, with or without histidine, 30°C, three days
[1] = target: Pab1 RRM2 (amino acids 123-204) [E181R, A185K, L186M] (S. cerevisiae) (UniProt P04147)
[2] = target: Pab1 RRM2 (amino acids 123-204) [E181R, A185K, L186M, G177E] (S. cerevisiae) (UniProt P04147)
[3] = target: Pab1 RRM2 (amino acids 123-204) L186M (S. cerevisiae) (UniProt P04147)
[4] = target: Pab1 RRM2 (amino acids 123-204) [E181R, A185K, L186M, V148A, K180E, D184E] (S. cerevisiae) (UniProt P04147)
[5] = target: Pab1 RRM2 (amino acids 123-204) [E181R, A185K, L186M, A158V, T159C] (S. cerevisiae) (UniProt P04147)
[6] = target: Pab1 RRM2 (amino acids 123-204) [E181R, A185K, L186M, E176Q, G177E] (S. cerevisiae) (UniProt P04147)
[7] = target: Pab1 RRM2 (amino acids 123-204) E181R (S. cerevisiae) (UniProt P04147)
[8] = target: Pab1 RRM2 (amino acids 123-204), wild type (S. cerevisiae) (UniProt P04147)
[9] = target: Pab1 RRM2 (amino acids 123-204) [E181R, A185K, L186M, P135K, Q194R] (S. cerevisiae) (UniProt P04147)
[10] = target: Pab1 RRM2 (amino acids 123-204) A185K (S. cerevisiae) (UniProt P04147)
[11] = target: human PABP1 fragment (amino acids 95-176), RRM2 (human) (UniProt P11940)

binding [1]: no binding
binding [2]: no binding
binding [3]: no binding
binding [4]: no binding
binding [5]: no binding
binding [6]: binds
binding [7]: binds
binding [8]: no binding
binding [9]: no binding
binding [10]: no binding
Molecule: human eIF4G1 N-terminus (amino acids 1-260) (from UniProt Q04637 1-260) (domain or fragment)

binding [11]: no binding
B1: yeast eIF4G1 N-terminus (amino acids 1-341) (domain or fragment, UniProt P39935 1-341)
chain: MTDETAHPTQSASKQESAALKQTGDDQQESQQQRGYTNYNNGSNYTQKKPYNSNRPHQQRGGKFGPNRYNNRGNYNGGGSFRGGHMGANSSNVPWTGYYNNYPVYYQPQQMAAAGSAPANPIPVEEKSPVPTKIEITTKSGEHLDLKEQHKAKLQSQERSTVSPQPESKLKETSDSTSTSTPTPTPSTNDSKASSEENISEAEKTRRNFIEQVKLRKAALEKKRKEQLEGSSGNNNIPMKTTPENVEEKGSDKPEVTEKTKPAEEKSAEPEVKQETPAEEGEQGEKGQIKEESTPKVLTFAERLKLKKQQKEREEKTEGKENKEVPVQEETKSAIESAPVP
